# Data published in PubChem BioAssay AID686978 (National Center for Advancing Translational Sciences (NCATS), 2013).
# The whole screen tested about 420,000 compounds, of which about 64,000 (15%) were called active. The inconclusive results got no clear call from the source; some entries with a clear call stand among them for comparison. Calls follow the shape of the dose curve; as a rule, active = well fitted inhibition curve with a large enough effect; inconclusive = small, poorly fitted or top-dose-only effect; inactive = flat fitted curve, though single readings scatter. No potency is given beside an inconclusive call; the fits are too rough.
# Assay: qHTS for Inhibitors of human tyrosyl-DNA phosphodiesterase 1 (TDP1): qHTS in cells in absence of CPT; also: nearly all actives have a fitted effect of over 55% in size
# Details: DT40 Tdp1-/- hTDP1 cells, no CPT, ATP luminescence, 48 h; activity change, negative = growth inhibition: at 46.2 µM (top of the series)
# In short: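 No-CPT arm: Tdp1-/-;hTDP1 DT40 cells (400/well) plus compounds, incubated ≥48 hr at 37 °C. Readout CellTiter-Glo luminescence.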
# % is scaled to controls: 0 for no effect and ±100 for the full control effect; potency is read from the fitted curve at half-maximal effect; tags tell the direction and shape of the fitted curve.
SMILES,Potency,"activity change, negative = growth inhibition"
Cc1cccc(C(=O)Nc2nc(C)c(C(=O)Nc3ccc4c(c3)CCC4)s2)c1,"inconclusive [inhibitor, single point]",
COc1ccc(-n2c(=O)c3c4c(sc3n(Cc3ccc(F)cc3)c2=O)CCCC4)c(OC)c1,active: 14.6 µM,
Cc1onc(-c2ccccc2)c1-c1nnc(COC(=O)c2ccc(O)cc2)o1,"inconclusive [inhibitor, partial curve]",
Cc1nnc(SCc2cc(=O)oc3cc(O)ccc23)n1Cc1ccccc1,"inconclusive [inhibitor, single point]",
CCC(=C(c1ccc(OC)cc1)c1ccc(OC)cc1)c1cn(CC(O)CN(CCO)CCO)c2ccccc12 (stereo not given),active: 20.6 µM,
CN(C)c1ccc(N=Nc2ccc(S(=O)(=O)O)cc2)cc1,,inactive: 1.05%
CCOc1ccc(CNS(=O)(=O)c2cc3c(cc2C)NC(=O)CO3)cc1OC,,inactive: -4.09%
O=C(COc1ccc2c(-c3ccccc3)cc(=O)oc2c1)Nc1ccc(CN2CCOCC2)cc1,"inconclusive [inhibitor, partial curve]",
Cc1cc(N2CCCCC2)nc2ccc(NC(=O)c3cccc(Cl)c3)cc12,active: 20.6 µM,
Cc1cccc(C)c1OCCOC(=O)c1ccc(S(=O)(=O)N2CCCC2)cc1,"inconclusive [inhibitor, single point]",
O=C1Nc2ccccc2N=C(c2ccccc2)C1N(C(=O)c1ccnc2ccccc12)c1ccccc1 (stereo not given),"inconclusive [inhibitor, single point]",
O=C1C=CC(=Nc2cccc3c2C(=O)c2ccccc2-3)O1,"inconclusive [inhibitor, single point]",
O=C(Nc1ccccc1N1CCCC1)c1cc(Cl)ccc1Cl,,inactive: -30%
Cc1ccc(CNC(=O)c2ccc(Cn3nc(C)c(Cl)c3C)o2)cc1,"inconclusive [inhibitor, single point]",
COc1ccc(NC(=O)CN(C)C(=O)c2cc3c(cc2Cl)N2CCCCCC2=NS3(=O)=O)cc1,,inactive: -1.39%
CCN1CCN(c2cc(C)c3cc(NC(=S)N4CCCCC4)ccc3n2)CC1,"inconclusive [inhibitor, single point]",
Cc1ccc(-n2ncc3c(N4CCCC(C)C4)ncnc32)c(C)c1 (stereo not given),active: 7.31 µM,
COc1ccc(N(CC(=O)N/N=C/c2cccc3c2OCCO3)S(=O)(=O)c2ccc(NC(C)=O)cc2)cc1,,inactive: -22.6%
CCOC(=O)[C@@H]1[C@H]2COc3cc(OC)ccc3[C@H]2N2C(=O)N(c3ccc(Cl)cc3)C(=O)[C@]12C,"inconclusive [inhibitor, single point]",
CCC(=O)NC(c1ccccc1)c1c(OC(C)=O)ccc2ccccc12 (stereo not given),"inconclusive [inhibitor, single point]",
O=C(CN1C2=NCCCN2c2ccccc21)c1cccc(Br)c1,active: 23.1 µM,
COc1ccc2cc3cc(C(=O)Nc4ccc5c(c4)OCO5)oc3nc2c1,"inconclusive [inhibitor, single point]",
Cc1nc2c(C(=O)NCc3ccccc3)c[nH]n2c(=O)c1Cc1ccccc1Cl,"inconclusive [inhibitor, single point]",

SMILES,Potency,"activity change, negative = growth inhibition"
Cc1sc2ncn(CC(=O)N(C)c3ccc(Br)cc3)c(=O)c2c1S(=O)(=O)N1CCC(C)CC1,"inconclusive [inhibitor, single point]",
CC(C)Nc1nnc(SCC(=O)/C=C2\N(C)c3ccccc3C2(C)C)s1,"inconclusive [inhibitor, single point]",
Cc1ccc(Nc2ccc(C(N)=O)cc2[N+](=O)[O-])cc1,"inconclusive [inhibitor, partial curve, poor fit]",
Cc1ccsc1C(=O)C1CCCN(Cc2cccn2-c2ccc(Cl)cn2)C1 (stereo not given),active: 25.9 µM,
Cc1ccc(C)c(NC(=S)NCCc2ccc(F)cc2)c1,"inconclusive [inhibitor, partial curve, poor fit]",
N=c1c2ccccc2nnn1-c1ccc(C(F)(F)F)cc1,active: 6.51 µM,
CC(C)(C)OC(=O)NCCCCCc1cn(CC(=O)NCCCCCCCCCCC(=O)N2CCN(C(=O)OC(C)(C)C)CC2)nn1,active: 6.51 µM,
COc1cccc(C(=O)Nc2ccc(N3CCCC3)cc2)c1,active: 8.2 µM,
CN(C)Cc1ncccc1Oc1nc2cc(-c3cccc(Cl)c3)sc2c(=O)n1C,"inconclusive [inhibitor, single point]",
CCN(CC)S(=O)(=O)c1ccc(NC(=O)CSc2nnc(-c3cccc(OC)c3)n2C)cc1,"inconclusive [inhibitor, partial curve, poor fit]",
CCN(CC)S(=O)(=O)c1cc(NS(=O)(=O)c2ccc(Cl)c(C(=O)O)c2)ccc1C,,inactive: -17.2%
CCOC(=O)c1c(NC(=O)CN2CCCc3ccccc32)sc(C)c1C,"inconclusive [inhibitor, single point]",
CC(=O)c1cc2c(cc1NS(=O)(=O)c1ccccc1Br)OCO2,,inactive: -27.4%
Cc1cccc(C)c1-n1nnnc1C1(C)CCC(=O)N1CCc1ccc(O)cc1 (stereo not given),"inconclusive [inhibitor, single point]",
Cc1cccc(NC(=O)c2c(C)oc3ncn(CC(C)C)c(=O)c23)n1,active: 9.2 µM,
Cn1cc(-c2nc3cnc(N4CCNCC4)nc3n(C)c2=O)c2ccccc21,active: 5.8 µM,
CC(C)(C)NC(=O)C[n+]1ccc(C(N)=O)cc1,,inactive: 25.4%
Cc1cccc(NC(=S)N/N=C/c2cccc([N+](=O)[O-])c2)c1,"inconclusive [inhibitor, single point]",
Cc1ccc2c(c1)N(C(=O)CCC(=O)Nc1ccccc1Br)CC(C)O2 (stereo not given),"inconclusive [inhibitor, single point]",
CCCCc1nc(N2CCOCC2)c(C#N)c2c1CCCC2,,inactive: 2.48%
C1=CN2CC=Cc3cc(/C=C/c4ccnc5ccccc45)cc(c32)C1,active: 7.08 µM,
CC1(C)CC(=O)N(c2ccc(Cl)c(Cl)c2)C(=O)C1,,inactive: -17.3%
